Out of some 280,000 compounds screened, about 100 (0.036%) were called active. This list was built around the results that the source calls inconclusive (neither active nor inactive); the mix of calls is not that of the screen. Calls follow the shape of the dose curve; as a rule, active = well fitted inhibition curve with a large enough effect in the signal ratio, with a control signal flat (not every such curve was filed as active); inconclusive = small, poorly fitted or top-dose-only effect, or effect the other way, or a change in a side signal; inactive = no such curve, though single readings can be large or run the other way; the % refers to the signal ratio. Potencies of inconclusive entries are doubtful fits and often do not repeat. A note “side channel” means that the fit belongs to a control or component signal, not to the main read-out.
Each compound was assayed against Muscleblind-like protein 1 (Homo sapiens) (UniProt Q9NR56) (assay: qHTS Assay for Inhibitors of MBNL1-poly(CUG) RNA binding). Conditions: TR-FRET MBNL1-His/biotin-(CUG)12 binding, 665/545 ratio; activity change, negative = inhibition: at 57.5 µM (top of the series).
Chain of UniProt Q9NR56 (Q9NR56 whole entry, looked up): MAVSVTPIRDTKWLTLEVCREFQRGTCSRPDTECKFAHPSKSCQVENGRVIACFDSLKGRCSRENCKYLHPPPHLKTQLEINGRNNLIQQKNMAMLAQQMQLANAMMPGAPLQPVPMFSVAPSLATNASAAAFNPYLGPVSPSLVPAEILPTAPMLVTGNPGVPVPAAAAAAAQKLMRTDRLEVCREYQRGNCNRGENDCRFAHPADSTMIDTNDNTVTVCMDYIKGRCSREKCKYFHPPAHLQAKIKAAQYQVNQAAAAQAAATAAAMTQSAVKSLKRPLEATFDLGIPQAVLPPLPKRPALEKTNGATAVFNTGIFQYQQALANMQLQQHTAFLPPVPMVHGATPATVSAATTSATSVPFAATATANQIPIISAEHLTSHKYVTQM
How it was run: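 Compounds (final 92 nM to 58 uM) are added to His-tagged MBNL1 and biotin-(CUG)12, then terbium anti-His antibody and streptavidin-XL665 (5 nM final). After 60 min at room temperature, the 665/545 nm ratio is read.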
% is scaled to controls: 0 for no effect and ±100 for the full control effect; potency is read from the fitted curve at half-maximal effect; tags tell the direction and shape of the fitted curve or compound fluorescence and quenching.

Row | Structure (SMILES) | Potency | activity change, negative = inhibition
1 | C=CCN1C(=O)C2(NNc3ccccc3O2)c2ccccc21 (centres undefined) | inconclusive: 28.2 µM [quencher, side channel, single point] | 
2 | CCc1ccc[n+](-c2nc([O-])sc2C=O)c1 | inconclusive: 35.5 µM [quencher, side channel, single point] | 
3 | COc1ccc(/C=N/NC(=O)c2ccc(C)nc2)cc1O | inconclusive: 20 µM [quencher, single point] | 
4 | O=C(COC(=O)CCCOc1ccccc1)NNC(=O)c1ccc([N+](=O)[O-])cc1 | inconclusive: 14.1 µM [quencher, partial curve] | 
5 | O=c1[nH]c2cc3c(cc2cc1CN(CCc1ccccc1)Cc1nnnn1C1CCCC1)OCCO3 | inconclusive: 10 µM [quencher, partial curve] | 
6 | CCS(=O)(=O)Nc1ccc(-c2ccc(NS(=O)(=O)CC)c(OC)c2)cc1OC | inconclusive: 50.1 µM [inhibitor, single point] | 
7 | CC(C)CCNC(=O)C12CN(Cc3ccccc3)CC1C(c1ccc([N+](=O)[O-])cc1)=NO2 (centres undefined) | inconclusive: 25.1 µM [quencher, side channel, partial curve] | 
8 | Cc1ccnc(Nc2nc(-c3ccccc3)cs2)c1 |  | inactive: 7.73%
9 | O=C(COc1ccccc1)N1c2ccccc2Sc2ccccc21 | inconclusive: 0.126 µM [fluorescent, side channel, full curve, poor fit] | 
10 | CCNc1nc(-c2ccc(OC(F)F)cc2)c(C)s1 |  | inactive: 0.423%
11 | C/C(=N\Nc1ccc(S(N)(=O)=O)cc1[N+](=O)[O-])c1ccccc1O | inconclusive: 3.16 µM [quencher, side channel, full curve] | 
12 | CCC(C)c1ccc(NC(=S)NCc2cccs2)cc1 (centres undefined) |  | inactive: -12.9%
13 | CCOc1ccc(/C=C/c2c([N+](=O)[O-])c(=O)n(C)c(=O)n2C)cc1 | inconclusive: 14.1 µM [quencher, partial curve] | 
14 | O=C(Nc1cccc(Cl)c1)Nc1ccccc1C(=O)O |  | inactive: -9.55%
15 | O=C(NCCN1CCOCC1)c1cc2ccccc2oc1=O | inconclusive: 15.8 µM [quencher, partial curve] | 
16 | COc1ccc(NC(=O)COC(=O)c2ccc(Cl)c(S(N)(=O)=O)c2)c([N+](=O)[O-])c1 | inconclusive: 0.891 µM [quencher, side channel, full curve] | 
17 | CC(C)C[C@H](NC(=O)[C@H](Cc1ccccc1)n1c(=O)[nH]c2ccccc2c1=O)C(=O)N1CCC(C(=O)O)CC1 |  | inactive: 9.93%
18 | O=C(CCC(=O)N1CCN(c2cccc(Cl)c2)CC1)N1CCN(c2ccccc2)CC1 |  | inactive: 1.24%
19 | O=[N+]([O-])c1cccc(/C([O-])=C(/C(=S)Nc2cccc3ccccc23)[n+]2ccccc2)c1 | inconclusive: 3.16 µM [quencher, side channel, single point] | 
20 | Oc1c(Br)cc(Br)cc1/C=N/Nc1ccc(Cl)nn1 |  | inactive: -8.04%

Row | Structure (SMILES) | Potency | activity change, negative = inhibition
21 | Cc1ccc2[nH]c(=O)c(CN(CC3CCCO3)S(=O)(=O)c3cccc4nsnc34)cc2c1 (centres undefined) | inconclusive: 12.6 µM [quencher, side channel, partial curve] | 
22 | CCNC(=O)/C(C#N)=C/c1c(N2CCN(C)CC2)nc2c(C)cccn2c1=O | inconclusive: 12.6 µM [quencher, side channel, partial curve] | 
23 | CC1CC(C(F)(F)C(F)(F)F)n2nc(C(=O)O)cc2N1 (centres undefined) | inconclusive: 50.1 µM [inhibitor, single point] | 
24 | CC(=O)N1N=C(c2ccc3ccccc3c2)OC12CCCC2 | inconclusive: 0.708 µM [quencher, side channel, full curve, poor fit] | 
25 | CCOc1cc(CNc2ccc(N(C)C)cc2)cc(Br)c1OCC(=O)NC(C)(C)C | inconclusive: 20 µM [quencher, partial curve] | 
26 | CCOc1ccc(CC(=O)N/N=C/c2sccc2C)cc1 | inconclusive: 39.8 µM [quencher, side channel, single point] | 
27 | CC1(C)CC(=O)C(N=Nc2ccc(Br)cc2)=C(O)C1 | inconclusive: 1.78 µM [quencher, side channel, full curve, poor fit] | 
28 | CCOC(=O)c1ccc(-n2c(CN3CCN(CC)CC3)nc3ccc([N+](=O)[O-])cc3c2=O)cc1 | inconclusive: 11.2 µM [quencher, side channel, partial curve] | 
29 | CC1=NCCN1S(=O)(=O)c1c(C(C)C)cc(C(C)C)cc1C(C)C | inconclusive: 12.6 µM [quencher, side channel, partial curve] | 
30 | COc1ccc(N=N/C(=C\O)C(=O)c2ccco2)cc1 | inconclusive: 15.8 µM [quencher, side channel, partial curve] | 
31 | Cc1nnc(NC(=O)c2nc(S(=O)(=O)Cc3ccccc3C)ncc2Cl)s1 | inconclusive: 20 µM [quencher, side channel, partial curve] | 
32 | Cc1ccc(NC(=O)CN2C(=O)S/C(=C\c3cc(C)n(-c4ccc(C(=O)O)cc4)c3C)C2=O)cc1 |  | inactive: 17.1%
33 | O=C(Nc1ccc(Nc2ccncc2)cc1)c1ccc([N+](=O)[O-])cc1 | inconclusive: 8.91 µM [quencher, partial curve] | 
34 | O=C(Nc1cc(C(F)(F)F)ccc1Cl)C(Sc1nnc(-c2cccs2)o1)c1ccccc1 (centres undefined) |  | inactive: 0.672%
35 | CC(C)COc1ccc(/C(O)=C2/C(=O)C(=O)N(CCN(C)C)C2c2ccncc2)cc1 (centres undefined) | inconclusive: 31.6 µM [quencher, side channel, single point] | 
36 | COc1ccc(-n2c(SCC(=O)NCC3CCCO3)nc3c(c2=O)SC(C)C3)cc1 (centres undefined) | inconclusive: 35.5 µM [quencher, single point] | 
37 | COc1ccc(C(=O)Nc2cnccn2)cc1[N+](=O)[O-] | inconclusive: 14.1 µM [quencher, side channel, partial curve] | 
38 | CC(=O)c1cc(NC(=O)c2cccc(C(F)(F)F)c2)c(=O)oc1/C=C/N(C)C |  | inactive: 4.4%
39 | CCOC(=O)c1cccc(NC(=O)c2ccc3c(c2)C(=O)N(CC2CCCO2)C3=O)c1 (centres undefined) | inconclusive: 8.91 µM [quencher, side channel, partial curve] | 

From PubChem BioAssay AID2675 (National Center for Advancing Translational Sciences (NCATS), 2010)
